Test results as given in PubChem BioAssay AID1346428 (National Center for Advancing Translational Sciences (NCATS), 2018).
The whole screen tested about 48,000 compounds, of which about 1,200 (2.5%) were called active. Roughly 2% stayed inconclusive and do not appear here.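 Rule for the calls: active = activation of at least 60% and not above a set upper limit (about 1 call in 100 departs from these limits); inconclusive = activation of 40% to 60%, or above that upper limit; inactive = activation under 40%.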 The list shows a part of the results.

What follows are compounds tested against Probable G-protein coupled receptor 32 (Homo sapiens) (UniProt O75388) (assay: qHTS for Agonists of Human Resolvin D1 Receptor DRV1). Conditions: CHO-K1 GPR32 beta-arrestin PathHunter luminescence, 90 min; at 76.9 µM; active compounds read high; zero percent set by DMSO-only wells.
Summary of the method: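 Step 1: seed CHO-K1 GPR32 beta-arrestin cells, 2,500/well, overnight at 37 °C. Step 2: add compounds, 90 min at 37 °C. Step 3: detection reagent, 1 h ambient, then luminescence.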
Note: 0% is about no effect.

Sequence of UniProt O75388 (O75388 whole entry, looked up): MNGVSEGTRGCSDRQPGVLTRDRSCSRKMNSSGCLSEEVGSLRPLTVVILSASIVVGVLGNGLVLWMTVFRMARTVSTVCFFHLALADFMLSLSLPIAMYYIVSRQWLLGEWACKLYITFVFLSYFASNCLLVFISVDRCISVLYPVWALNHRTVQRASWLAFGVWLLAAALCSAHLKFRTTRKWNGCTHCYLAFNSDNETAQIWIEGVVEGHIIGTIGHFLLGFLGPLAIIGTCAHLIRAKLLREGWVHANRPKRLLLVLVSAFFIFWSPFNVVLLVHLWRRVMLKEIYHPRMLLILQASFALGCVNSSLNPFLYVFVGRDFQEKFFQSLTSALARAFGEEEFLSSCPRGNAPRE

activation, inactive:
CCC(C)[C@H](N)c1nnc(SCc2ccc(Cl)c(Cl)c2)o1 (some centres undefined) 13.9%
COc1ccc(Br)cc1CNC(=O)CSc1n[nH]c(-c2ccccc2)n1 -8.79%
CCn1c(CN2CCCCC2)nc2cc(NC(=O)COc3ccc(C(C)(C)C)cc3)ccc21 1.03%
CN1CCN(C2=Nc3cc(F)ccc3Cc3ccccc32)CC1 -6.02%
Cc1oc2ccc(O)c(CN3CCC(C)CC3)c2c1C(=O)Nc1ccccc1 17.2%
COc1ccc2c(c1)NC(c1ccc(Cl)cc1)=NC(c1cccs1)=N2 -17.5%
Cc1ccc(S(=O)(=O)NCCSc2nnnn2-c2ccccc2)cc1 -1.02%
CCCN1C(=O)C(Cc2nc3ccccc3c(=O)n2CC)c2cc(Br)ccc21 (centres undefined) -10.9%
CC(C)(C)c1ccc(-c2nnc(-c3ccccc3NC(=O)c3cccc(C(F)(F)F)c3)o2)cc1 4.17%
Cc1ccc(C)c(Cn2c(=O)n(Cc3ccccc3)c(=O)c3sc4ccccc4c32)c1 11.1%
COc1cc(NC(=O)CCCc2nnc3n(C)c(=O)c4sccc4n23)cc(OC)c1OC -10.6%
Cc1ccc(CNC(=O)CSc2c(C(C)C)cnc3c2c(=O)n(C)c(=O)n3C)cc1 -16.7%
O=C(CSCc1ccc(F)cc1)NCc1ccc(F)cc1 -10.3%
Cc1cccc(CC(=O)N2CC(=O)Nc3ccc(F)cc3C2c2ccccc2)c1 (centres undefined) -17.5%
NC(N)=NC(N)=Nc1cccc(Cl)c1 2.48%
CCC(CC)C(=O)N1CCc2cc(OC)c(OC)cc2C1COc1ccc(F)cc1 (centres undefined) 2.12%
CCc1ccccc1NC(=O)Nc1ccc2snnc2c1 46.2%
CCc1ccc(NS(=O)(=O)c2ccc3[nH]c4c(c3c2)CCCCCC4)cc1 40.3%
Cc1cccc(-n2ncc(C(=O)NCc3ccc4c(c3)OCO4)c2C2CCN(C(=O)OC(C)(C)C)CC2)c1 -20.5%
O=C(CSc1nc(Nc2ccc(F)c(F)c2)c2ccccc2n1)c1ccc(Cl)cc1 -16.5%
COc1ccc(-c2cccc(NS(=O)(=O)c3ccc(NC(C)=O)cc3)c2)nn1 35.7%
CC(C)(C)OC(=O)N1CCC(c2c(C(=O)NCCN3CCOCC3)cnn2-c2ccc(F)cc2F)CC1 0.021%
CCCCN(C)CCNC(=O)c1cc(-c2ccc(Cl)s2)nc2ccccc12 47.4%
CCc1ccc(NC(=O)CN2C(=O)CC(c3ccccc3)Sc3ccccc32)cc1 (centres undefined) -14.2%
